# Experimental data published in US20240245798A1, “NOVEL ANTI-TPBG ANTIBODY AND ANTIBODY-DRUG-CONJUGATES BASED THEREON, THERAPEUTIC METHODS AND USES THEREOF” (Tubulis GmbH, priority 2022, published 2024).
# T1: recombinant human 5T4 antigen (extracellular domain) (Homo sapiens, UniProt Q13641)
# T1 construct: consisting of the extracellular domain (ACD) of 5T4 expressed as a 6×-Histidine fusion protein; 6xHis; made in house; host or cells: Expi-HEK293
# T1 sequence (Q13641 32-355 limits assumed): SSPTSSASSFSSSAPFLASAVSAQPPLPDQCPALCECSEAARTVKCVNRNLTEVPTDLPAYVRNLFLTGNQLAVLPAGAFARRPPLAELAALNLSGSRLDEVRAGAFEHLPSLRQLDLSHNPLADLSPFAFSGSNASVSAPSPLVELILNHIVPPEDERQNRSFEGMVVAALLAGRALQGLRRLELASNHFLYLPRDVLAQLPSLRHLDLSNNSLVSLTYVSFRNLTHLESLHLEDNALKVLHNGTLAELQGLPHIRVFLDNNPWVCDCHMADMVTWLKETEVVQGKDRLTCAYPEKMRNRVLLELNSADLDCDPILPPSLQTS
# T2: endogenously expressed human 5T4 (Homo sapiens, UniProt Q13641)
# T2 construct: endogenously expressed human 5T4; endogenous in cells; host or cells: MDA-MB-468
# T2 sequence (Q13641 32-420): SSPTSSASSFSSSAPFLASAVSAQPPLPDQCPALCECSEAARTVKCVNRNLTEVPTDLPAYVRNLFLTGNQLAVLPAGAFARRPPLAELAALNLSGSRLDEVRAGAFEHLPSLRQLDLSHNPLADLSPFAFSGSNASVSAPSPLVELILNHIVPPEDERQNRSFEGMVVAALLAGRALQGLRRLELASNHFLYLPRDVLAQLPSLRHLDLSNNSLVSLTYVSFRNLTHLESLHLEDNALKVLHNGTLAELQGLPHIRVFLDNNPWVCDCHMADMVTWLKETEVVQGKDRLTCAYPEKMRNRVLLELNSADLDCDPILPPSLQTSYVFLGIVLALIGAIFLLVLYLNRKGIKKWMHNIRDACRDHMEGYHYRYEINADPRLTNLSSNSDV
# How the values were obtained:
# [1] = target: T1, recombinant human 5T4 antigen (extracellular domain); assay: Binding to purified recombinant immobilized human 5T4 antigen, ELISA; settings: summary statement of the description; read-out: apparent dissociation constants (KD) to human 5T4 in an ELISA setting
# Procedure: Binding of increasing concentrations of the anti-TPBG antibody to a purified recombinant immobilized human 5T4 antigen was tested in an ELISA setting.
# To determine binding of the anti-TPBG antibody to 5T4 antigen, 96-well-, F-Bottom black, MaxiSorp, Nunc-Immuno plates (Thermo Fisher) were coated with 1 μg/mL purified recombinant human 5T4 antigen, consisting of the extracellular domain (ACD) of 5T4 expressed as a 6×-Histidine fusion protein in Expi-HEK293 cells. For de-glycosylation, the antigen was incubated with PNGase F (Promega) over night at 37° C. De-glyosylation was confirmed by Coomassie-stained SDS-PAGE (FIG. 2B). After blocking with 2% bovine serum albumin (Carl Roth) in 1×PBS-Tween 20 (0.05%), increasing antibody concentrations (0.00015, 0.00046, 0.00137, 0.00412, 0.01235, 0.03704, 0.11111, 0.33333, 1.00000, 3.00000, 9.00000 μg/ml) were allowed to bind for 2 hr at room temperature. Bound antibodies were detected by incubation with Alkaline Phosphatase AffiniPure Rabbit Anti-Human IgG (Fcγ fragment specific) (Jackson Immunoresearch, 309-055-008) (dilution 1:5000 in blocking solution) for 1 hr at RT. […] The hydrolysis of 4-MUP to the soluble fluorescent substance methylumbelliferone is quantified by the fluorescence signal of methylumbelliferone (385 nm excitation wavelength, 448 nm emission wavelength) using a microplate reader Infinite M1000 Pro (Tecan). […]
# [2] = tested on: MDA-MB-468 and DU-145 target cells; assay: Calcein release-based ADCC assay with human NK cells; assay type: cell-based; settings: 15 μg/ml, NK:target 4:1, 4 h
# Source text: For the Calcein release-based antibody-dependent cellular cytotoxicity (ADCC) assay, peripheral blood mononuclear cells (PBMCs) were isolated from healthy donor buffy coats (purchased from DONAS GmbH) using LeucoSep tubes (Greiner Bio-One) and Histopaque®-1077 (density 1.077 g/ml, Merck) density gradient according to standard protocols. Afterwards, natural killer (NK) cells were MACS (magnetic cell separation)-sorted using human NK cell isolation kit (Miltenyi Biotec) by negative selection according to the manufacturer's instructions yielding untouched human primary NK cells. 5T4-positive target cells MDA-MB-468 (5T4^high) and DU-145 (5T4^med) were stained with 16 μM Calcein AM (Thermo Fisher Scientific). 40.000 NK cells and 10.000 Calcein-stained target cells were incubated at a 4:1 ratio in the presence of 15 μg/ml antibodies or ADCs. Cells permeabilized with 2.5% Triton X 100 (Merck) served as a positive control for maximum Calcein release. After 4 h, supernatants were transferred to a flat black non-binding 96-well plate (Greiner Bio-One) and fluorescence was measured at 485/535 nM via the Infinite […] reader (Tecan). The percent specific killing was calculated by dividing the Calcein released by antibody-mediated killing minus background Calcein release (NKs+targets) from Calcein released by Triton X-permeabilized cells (maximum killing) minus background Calcein release (targets only). Graphs show means of n=2±SEM.
# [3] = target: T2, endogenously expressed human 5T4; assay: Binding to human 5T4 evaluated by flow cytometry on MDA-MB-468 cells; settings: MDA-MB-468 cells endogenously expressing 5T4, one-site specific binding model, listed as mAb of the present invention
# Procedure: To determine equilibrium binding constants (KD) to endogenously expressed human 5T4, 5T4-expressing MDA-MB-468 cells were incubated with antibodies in concentrations ranging from 0.002 to 200 nM and stained with an Alexa-dye-labeled anti-human IgG H+L secondary antibody (Thermo Fisher Scientific) and analyzed by flow cytometry. Mean fluorescence intensity (MFI) ratios were normalized to the non-specific binding control. The assay was performed in duplicates and data points were analyzed by a non-linear regression using a one-site specific binding model to derive KD values using Prism 9 software.
Kd [1],Kd [3],Molecule,ADCC activity in human NK cells [2]
110 pM,250 pM,anti-TPBG antibody: humanized anti-5T4 monoclonal IgG1 antibody with Fc silencing mutations L234A and L235A (LALA) (antibody) heavy: EVQLVQSGAEVKKPGASVKVSCKASGYSFTGYYMHWVRQAPGQGLEWMGRINPNNGVTLYNQKFKDRVTITRDTSTSTAYMELSSLRSEDTAVYYCARSTMITNYVMDYWGQGTLVTVSS[human IgG1 constant region with changes not spelt out] light: EIVMTQSPDSLAVSLGERATINCKASQSVSNDVAWYQQKPGQPPKLLIYYTSSRYAGVPDRFSGSGSGTDFTLTISSLQAEDVAVYYCQQDYNSPPTFGGGTKLEIKRTVAAPSVFIFPPSDEQLKSGTASVVCLLNNFYPREAKVQWKVDNALQSGNSQESVTEQDSKDSTYSLSSTLTLSKADYEKHKVYACEVTHQGLSSPVTKSFNRGEC,did not induce ADCC
,,anti-TPBG HC-wt: Fc-wildtype anti-TPBG antibody (HC-wt: SEQ ID NO: 24) (antibody) heavy: EVQLVQSGAEVKKPGASVKVSCKASGYSFTGYYMHWVRQAPGQGLEWMGRINPNNGVTLYNQKFKDRVTITRDTSTSTAYMELSSLRSEDTAVYYCARSTMITNYVMDYWGQGTLVTVSS[human IgG1 constant region not spelt out] light: EIVMTQSPDSLAVSLGERATINCKASQSVSNDVAWYQQKPGQPPKLLIYYTSSRYAGVPDRFSGSGSGTDFTLTISSLQAEDVAVYYCQQDYNSPPTFGGGTKLEIKRTVAAPSVFIFPPSDEQLKSGTASVVCLLNNFYPREAKVQWKVDNALQSGNSQESVTEQDSKDSTYSLSSTLTLSKADYEKHKVYACEVTHQGLSSPVTKSFNRGEC,high ADCC activity
